Results: PubChem BioAssay AID1721 (National Center for Advancing Translational Sciences (NCATS), 2009)
The campaign covered roughly 290,000 compounds. About 1,100 (0.38%) were called active. This list was built around the results that the source calls inconclusive (neither active nor inactive); the mix of calls is not that of the screen. The call rests on the fitted dose curve; in most records, active means well fitted inhibition curve with a large enough effect; inconclusive means small, poorly fitted or top-dose-only effect, or another doubt; inactive means no such curve, though single readings can be large or run the other way. Where the call is inconclusive, the potency comes from a doubtful curve fit.
On the % scale 0 is the no-effect control and ±100 the full control effect; potency means the concentration at half of the fitted maximal effect; tags describe the fitted curve by direction and shape.

These compounds were tested against Pyruvate kinase (Leishmania mexicana) (UniProt Q27686) (assay: qHTS Assay for Inhibitors of Leishmania Mexicana Pyruvate Kinase (LmPK)). Settings: purified LmPK, Kinase-Glo ATP luminescence, 1 h; activity change, negative = inhibition: at 57.5 µM (top of the series) unless noted.
UniProt Q27686, sequence (Q27686 whole entry, looked up): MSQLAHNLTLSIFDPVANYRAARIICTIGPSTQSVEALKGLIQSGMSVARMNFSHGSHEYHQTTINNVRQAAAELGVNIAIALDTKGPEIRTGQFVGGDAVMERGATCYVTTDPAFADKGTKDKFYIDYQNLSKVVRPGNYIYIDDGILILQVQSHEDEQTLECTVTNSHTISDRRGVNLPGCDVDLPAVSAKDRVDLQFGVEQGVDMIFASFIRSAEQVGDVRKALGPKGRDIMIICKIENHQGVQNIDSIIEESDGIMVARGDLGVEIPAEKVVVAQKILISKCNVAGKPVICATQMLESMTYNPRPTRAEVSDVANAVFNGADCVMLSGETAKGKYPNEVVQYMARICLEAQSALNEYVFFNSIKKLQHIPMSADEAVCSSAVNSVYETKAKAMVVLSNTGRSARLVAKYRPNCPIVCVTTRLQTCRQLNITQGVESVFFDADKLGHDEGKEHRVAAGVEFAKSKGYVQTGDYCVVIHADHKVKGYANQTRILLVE
Text: NIH Chemical Genomics Center [NCGC] Malcolm Walkinshaw, Hugh Morgan, Linda Gilmore University of Edinburgh, UK MLPCN Grant: 1 R03 MH085697-01 NCGC Assay Overview: Pyruvate kinase (L. Mexicana) (LmPK) enzyme was supplied as a highly purified (>95% pure) sulphate-free preparation from University of Edinburgh, UK and assayed for its ability to generate ATP from ADP using phosphoenolpyruvate (PEP) as a substrate. ATP generation was detected in a coupled reaction by luciferase-mediated luminescence, an ATP-dependent process. […] The enzyme was assayed at an intermediate level of activity to screen for both inhibitors and activators.
NCGC Assay Protocol Summary: Three uL of enzyme mix (kept on ice) in assay buffer (50 mM Imidazole pH7.2, 50 mM KCl, 7 mM MgCl2, 0.01% Tween 20, 0.05% BSA) containing PEP (0.5 mM final concentration) and LmPK (0.1 nM final concentration) was dispensed into white solid bottom 1,536 well microtiter plates. 23 nL of compound were delivered by a pin tool and 1 uL of ADP mix in assay buffer (r.t; 0.1 mM final ADP concentration) was added. Plates were incubated at room temperature for 1 hour. Two uL of detection mix (Kinase-Glo, Promega; at 4 degree Celsius protected from light) was added and luminescence read by a ViewLux (Perkin Elmer) at 1 second exposure/plate. Data were normalized to the uninhibited and AC100 inhibition (no enzyme). To monitor activation, the first column contained a five-fold concentration of LmPK (0.5 nM).
`S=c1nc(-c2ccccc2)n(-c2ccccc2)[nH]1` was tested, and the Potency was inconclusive: 20 µM [falling, single point]. In the case of `COc1cccc(/C=N\NC(=O)C2=NNC(=O)C2C)c1O` (stereo not drawn), the Potency is reported as inconclusive: 15.8 µM [falling, partial curve]. With `O=C1c2ccccc2-c2nnc(-c3ccccc3)cc21` the Potency was active: 2.82 µM. With `Cc1cccn2cc(-c3ccccc3)nc12` the Potency was inconclusive: 25.1 µM [falling, partial curve]. For `COC(=O)c1ccc(NC(=O)c2cc3sccc3n2C)cc1`, the Potency was “inactive”. With `CCOc1ccc(N2Cc3ncccc3C2=O)cc1` the Potency was inconclusive: 25.1 µM [falling, partial curve]. With `CC(C)(C)OC(=O)CNC(=O)c1[nH]cnc1C(=O)NC(c1ccccc1)c1ccccc1` the Potency was “inactive”. `Cc1ccc(-c2nc3[nH]c(=O)cc(NC(=O)c4cccs4)n3n2)cc1` was tested, and the Potency was inconclusive: 28.2 µM [falling, single point]. With `Cc1ccc(C2CC2c2n[nH]c(=S)n2-c2ccc(C)cc2)cc1` (stereo not drawn) the Potency was active: 11.2 µM. `CN(C)c1ccc(/C=C/c2cc[n+](C)c3ccccc23)cc1` was tested, and the Potency was inconclusive: 25.1 µM [falling, partial curve]. For `Cc1ccc(-c2nnc(N3CCCCC3)c3ccccc23)cc1S(=O)(=O)NCC1CCCO1` (stereo not drawn), the Potency was “inactive”. `Cc1ccc(NC(=O)c2sc3nc[nH]c(=O)c3c2C)c(C)c1` was tested, and the Potency was “inactive”. `Cc1ccc(-n2c(-c3cc(-c4ccco4)[nH]n3)n[nH]c2=S)c(Br)c1` was tested, and the Potency was inconclusive: 22.4 µM [falling, partial curve, poor fit]. In the case of `Cc1ccc(/C(O)=C/c2nc3ccccc3oc2=O)cc1`, the Potency is reported as inconclusive: 39.8 µM [falling, single point]. With `Cc1cccc2nc(COc3ccc(-c4ccccc4)cc3)cn12` the Potency was active: 25.1 µM. With `C/C(=N\NC(=O)c1ccccc1)c1ccccc1F` the Potency was inconclusive: 14.1 µM [falling, partial curve]. In the case of `Cn1cccc1C(=O)Nc1nc(-c2ccccn2)cs1`, the Potency is reported as inconclusive: 20 µM [falling, single point]. `COC(=O)c1sccc1-c1ccc(C(=O)Nc2ccccc2)o1` was tested, and the Potency was “inactive”. For `CCSc1nnc2n1C(C)(C)Cc1ccccc1-2`, the Potency was “inactive”. With `Cc1cc(-c2ccccc2)nc2c(Br)c(=O)[nH]n12` the Potency was “inactive”. In the case of `NC(=O)C1CCCNC1` (stereo not drawn), the Potency is reported as “inactive”. In the case of `COc1cccc(C(=O)Nc2ccccc2)c1`, the Potency is reported as inconclusive: 20 µM [falling, partial curve]. With `O=C(c1ccc(Br)cc1)N(C1=NCCCCS1)c1ccccc1` the Potency was “inactive”. In the case of `O=C1CCCc2nc(N3CCc4ccccc43)ncc21`, the Potency is reported as inconclusive: 10 µM [falling, partial curve]. For `S=c1[nH]nc(-c2ccccc2)n1/N=C/c1cccs1`, the Potency was inconclusive: 28.2 µM [falling, single point]. In the case of `NC(=O)[C@H]1CC2(CC(c3cccc(NC(=O)[C@H]4CCC(=O)N4)c3)=NO2)CN1C(=O)c1ccccc1` (stereo partly drawn), the Potency is reported as inconclusive: 31.6 µM [falling, single point]. For `Cc1ccc(-c2ccc(=O)n(CCC(=O)N3CCN(c4cccc(C)c4)C(C)C3)n2)cc1` (stereo not drawn), the Potency was inconclusive: 0.794 µM [falling, single point]. For `Cc1scc(-c2n[nH]c(=S)n2Cc2ccccc2)c1C`, the Potency was inconclusive: 25.1 µM [falling, single point]. In the case of `N/C(CSc1ccccn1)=N\OCc1c(Cl)cccc1Cl`, the Potency is reported as “inactive”. For `O=C(/C=C/c1ccc(OC2CSC2)cc1)c1ccccc1`, the Potency was active: 25.1 µM. `Cc1ccc(NCc2n[nH]c(=S)n2-c2ccccc2)c(C)c1` was tested, and the Potency was inconclusive: 15.8 µM [falling, partial curve, poor fit]. With `Oc1ccc(C[C@H]2NCCc3cc(O)c(O)cc32)cc1O` the Potency was inconclusive: 0.501 µM [falling, full curve]. `COc1ccc(CC(=O)NCc2n[nH]c(=S)n2-c2ccc(Br)cc2)cc1` was tested, and the Potency was inconclusive: 22.4 µM [falling, partial curve]. With `Cc1nc2ccc(N=NN(C)C)cc2[nH]1` the Potency was inconclusive: 31.6 µM [falling, single point]. `COCCCn1nnnc1SCC(=O)N1CCCC1` was tested, and the Potency was “inactive”. `O=C(c1ccc(CS(=O)c2cccc(Cl)c2)o1)N1CCN(c2ccccn2)CC1` (stereo not drawn) was tested, and the Potency was “inactive”. For `COc1cc(OC)c(C(=O)Nc2ccc(N(C)C)cc2)cc1OC`, the Potency was inconclusive: 39.8 µM [falling, single point]. For `C=C1C(=O)O[C@@H]2C[C@@H](C)[C@@H]3C=CC(=O)[C@@]3(C)[C@@H](OC(C)=O)[C@H]12`, the Potency was “inactive”. With `COc1c2c(cc3oc(=O)ccc13)OC(C)(C)C=C2` the Potency was “inactive”. `COc1ccccc1OCC(=O)Nc1ccccc1C(=O)N1CCCCC1` was tested, and the Potency was “inactive”. With `Fc1ccc(-c2c[nH]c(=S)n2Cc2ccccc2)cc1` the Potency was active: 3.55 µM. For `Cc1ccc(-c2nnc(NC(=O)c3ccco3)s2)cc1`, the Potency was inconclusive: 17.8 µM [falling, single point]. `Fc1ccccc1N1CCN(c2nc3ccccc3n3nnnc23)CC1` was tested, and the Potency was “inactive”. `Nn1c(Nc2ccccc2)nc2ccccc21` was tested, and the Potency was inconclusive: 31.6 µM [falling, single point]. For `COc1ccc(/C=N/NS(=O)(=O)c2ccccc2)cc1OS(=O)(=O)c1ccccc1`, the Potency was “inactive”. For `O=Cc1cn(Cc2ccc([N+](=O)[O-])cc2)c2ccccc12`, the Potency was “inactive”. `CCCCCC(=O)NC(=S)NNC(=O)c1ccc([N+](=O)[O-])cc1` was tested, and the Potency was active: 31.6 µM. In the case of `COc1cccc(C=Nc2cccc3c(=O)[nH][nH]c(=O)c23)c1O`, the Potency is reported as inconclusive: 14.1 µM [falling, partial curve]. For `CSc1ccc(C(=O)/C=C/c2ccc(N)cc2)cc1`, the Potency was inconclusive: 25.1 µM [falling, partial curve]. In the case of `NC(N)=Nc1nc2cc([N+](=O)[O-])ccc2o1`, the Potency is reported as “inactive”. In the case of `CC(C)Oc1ccc(CCc2n[nH]c(=S)n2-c2ccccc2)cc1`, the Potency is reported as active: 14.1 µM. With `COc1ccc(NC(=O)c2nc3ccccc3s2)cc1` the Potency was active: 15.8 µM. In the case of `COc1cc(/C=N/N=C/c2cc(OC)c(O)c(OC)c2)cc(OC)c1O`, the Potency is reported as “inactive”. `O=C(/C=C/c1ccccc1)c1ccc2c(c1)OCO2` was tested, and the Potency was inconclusive: 17.8 µM [falling, partial curve]. For `CCCc1cc(-c2n[nH]c(=S)n2-c2cccc(C)c2)cs1`, the Potency was inconclusive: 31.6 µM [falling, single point]. `Oc1ccc(-c2cn3ccccc3n2)cc1` was tested, and the Potency was active: 22.4 µM. `COc1ccc(N=CC2=C(O)c3ccccc3C2=O)c(OC)c1` was tested, and the Potency was inconclusive: 7.08 µM [falling, partial curve]. In the case of `CSC1=N/C(=C/c2ccc(-n3cncn3)cc2)C(=O)N1`, the Potency is reported as inconclusive: 8.91 µM [falling, partial curve]. `O=C(O)CSc1ccc(NC(=O)Nc2ccccc2F)cc1` was tested, and the Potency was active: 15.8 µM. For `Oc1ccc(N=Nc2ccc3c(c2)OCCO3)c(O)c1`, the Potency was inconclusive: 20 µM [falling, partial curve]. For `S=c1[nH]nc(C2CCCCC2)n1/N=C/c1c(Cl)cccc1Cl`, the Potency was inconclusive: 39.8 µM [falling, single point]. In the case of `COc1nc(C)nc2c1sc1nc3c(cc12)COC(C)(C)C3`, the Potency is reported as inconclusive: 15.8 µM [falling, partial curve]. For `Cc1ccccc1-c1nnc(-c2ccccc2)o1`, the Potency was inconclusive: 15.8 µM [falling, partial curve]. For `C/C(=N/NC(=O)c1sc(NS(=O)(=O)c2ccccc2)nc1C)c1sc(N)nc1C`, the Potency was “inactive”. With `CCSC1=NCCN1S(=O)(=O)c1ccc2ccccc2c1` the activity change, negative = inhibition was inactive: -5.74% [at 11.5 µM]. In the case of `CCOc1ccc(C(=O)Nc2cccc(C)n2)cc1`, the Potency is reported as active: 15.8 µM. With `Nc1nc2ccccc2n1C(=O)c1ccccc1` the Potency was active: 6.31 µM. For `CCC(O)c1cc2c(cc1NC(=O)c1cccs1)OCCO2` (stereo not drawn), the Potency was “inactive”. For `CC(C)NC(=O)NC(=O)CN1c2cccc3cccc(c23)S1(=O)=O`, the Potency was “inactive”. With `O=c1ccc2[n+]([O-])c3ccc(O)cc3oc-2c1` the Potency was inconclusive: 28.2 µM [falling, single point]. In the case of `COc1ccc2nc(-c3cccc(N)c3)[nH]c2c1`, the Potency is reported as active: 22.4 µM. For `CCOc1cccc(-c2c(C(=O)N/N=C/c3ccc(Br)cc3)nnn2-c2nonc2N)c1`, the Potency was “inactive”. For `Oc1ccc(Br)cc1/C=N/N1CCCCC1`, the Potency was inconclusive: 20 µM [falling, partial curve]. With `Cc1ccccc1C(=O)O/N=C(\N)c1ccncc1` the Potency was inconclusive: 22.4 µM [falling, partial curve]. In the case of `CC(=O)Oc1ccc2cc(-c3ccccc3)c(=O)oc2c1`, the Potency is reported as inconclusive: 14.1 µM [falling, partial curve]. With `COc1cccc2cc(C(C)OC(=O)Nc3ccc(C)cc3)oc12` (stereo not drawn) the Potency was “inactive”. With `CCCC(=O)Nc1ccc(NC(=O)c2cccc(OC)c2)nc1` the Potency was inconclusive: 14.1 µM [falling, partial curve]. `COc1ccc(N)c2c1C(=O)c1ccccc1C2=O` was tested, and the Potency was inconclusive: 22.4 µM [falling, single point]. `Cc1cccc(NC(=O)c2ccc(C(=O)c3ccccc3)o2)c1` was tested, and the Potency was “inactive”. For `COc1cc(C(=O)Nc2ccc(O)cc2)ccc1OC(C)=O`, the Potency was inconclusive: 28.2 µM [falling, partial curve]. `S=c1[nH]nc(COc2ccc(Cl)cc2)n1-c1ccccc1` was tested, and the Potency was inconclusive: 35.5 µM [falling, single point]. `O=c1oc2ccccc2cc1-c1nc2c(s1)CCCC2` was tested, and the Potency was active: 12.6 µM. `O=C1N=c2ccc(Br)cc2=C1c1sc(=O)[nH]c1O` was tested, and the Potency was inconclusive: 17.8 µM [falling, partial curve].
